Measurements published in PubChem BioAssay AID686979 (National Center for Advancing Translational Sciences (NCATS), 2013).
Hit rate of the full screen: of about 420,000 compounds, about 50,000 (12%) were called active. Inconclusive results, whose numbers are uncertain, are shown with a selection of clear calls. The call rests on the fitted dose curve; in most records, active means well fitted inhibition curve with a large enough effect; inconclusive means small, poorly fitted or top-dose-only effect; inactive means flat fitted curve, though single readings scatter. No potency is given beside an inconclusive call; the fits are too rough.

test: qHTS for Inhibitors of human tyrosyl-DNA phosphodiesterase 1 (TDP1): qHTS in cells in presence of CPT; settings: chicken DT40 Tdp1-/-;hTDP1 cells + 20 nM CPT, ATP luminescence, 48 h; activity change, negative = growth inhibition: at 46.2 µM (top of the series) unless noted; further: nearly all actives have a fitted effect of over 55% in size
Outline: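 Chicken DT40 Tdp1-/- cells stably complemented with human TDP1 were seeded at 400 cells/well in medium containing 20 nM camptothecin, exposed to pin-transferred compounds, and grown at 37 °C for at least 48 hr. Viability was read as ATP luminescence.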
On the % scale 0 is the no-effect control and ±100 the full control effect; potency means the concentration at half of the fitted maximal effect; tags describe the fitted curve by direction and shape.

**Q.** With CCn1cc(C(=O)N2CCN(c3ccc(C)cc3)C(C)C2)c(=O)c2cc(S(=O)(=O)N3CCCC3)ccc21 (stereo unspecified) as the molecule, how does the Potency read?
**A.** inconclusive [inhibitor, single point]

**Q.** With COCCCn1c(SCC(=O)Nc2ccc(C(C)=O)cc2)nc2ccccc2c1=O as the molecule, how does the Potency read?
**A.** inconclusive [inhibitor, single point]

**Q.** With CCC(C)NC(=O)C1CCN(S(=O)(=O)c2ccc3c(c2)CCCN3C(C)=O)CC1 (stereo unspecified) as the molecule, how does the “activity change, negative = growth inhibition” value read?
**A.** inactive: -6.02%

**Q.** Which Potency does the source give for O=S(=O)(NCCSc1ccccc1)c1ccc(F)cc1 here?
**A.** inconclusive [inhibitor, single point]

**Q.** For O=[N+]([O-])c1c(C(Cl)Cl)nn(-c2ccc(Cl)cc2)c1N1CCCCC1, which Potency is on record?
**A.** inconclusive [inhibitor, partial curve]

**Q.** For COc1ccc(CCNC(=O)CCc2ccccc2)cc1OC, which “activity change, negative = growth inhibition” value is on record?
**A.** inactive: 3.26%

**Q.** Which Potency does the source give for N#Cc1ccccc1NC(=O)CNc1ccc(Cl)c(C(F)(F)F)c1 here?
**A.** inconclusive [inhibitor, partial curve]

**Q.** With COc1cccc(-c2cc(=O)c3ccc(OC)cc3o2)c1 as the molecule, how does the Potency read?
**A.** inconclusive [inhibitor, single point]

**Q.** With CCOC(=O)C1=CCN(S(=O)(=O)c2ccccc2Br)C1c1cccc(F)c1 (stereo unspecified) as the molecule, how does the Potency read?
**A.** inconclusive [inhibitor, single point]

**Q.** For O=C(NCCN1CCCCCC1)C1CCN(S(=O)(=O)N2CCOCC2)CC1, which “activity change, negative = growth inhibition” value is on record?
**A.** inactive: -0.0806%

**Q.** Which Potency does the source give for O=C1Oc2ccccc2C(=O)/C1=C/c1ccccc1O here?
**A.** active: 5.8 µM

**Q.** Which “activity change, negative = growth inhibition” value does the source give for O=C(O)c1cc([N+](=O)[O-])c(Nc2cccc3ccccc23)c([N+](=O)[O-])c1 here?
**A.** inactive: -27.4%

**Q.** With COc1ccc(C(=O)NCc2nnc(SCC(=O)Nc3cc(OC)ccc3OC)o2)cc1 as the molecule, how does the “activity change, negative = growth inhibition” value read?
**A.** inactive: -0.725%

**Q.** For Cc1nc2c(C)cccc2c2c1CCN2c1ccccc1F, which Potency is on record?
**A.** active: 14.6 µM

**Q.** Which Potency does the source give for Cc1nc2ccc(S(=O)(=O)N(CC(=O)Nc3ccc(F)cc3F)Cc3ccccc3)cc2s1 here?
**A.** inconclusive [inhibitor, single point]

**Q.** Which “activity change, negative = growth inhibition” value does the source give for O=C(NCc1ccco1)c1ccc(COCC(F)(F)F)cc1 here?
**A.** inactive: -8.13%

**Q.** With O=C(NC(c1ccc2c(c1)OCO2)c1ccccn1)C1CCN(CCOc2ccc(Cl)cc2Cl)CC1 (stereo unspecified) as the molecule, how does the Potency read?
**A.** inconclusive [inhibitor, single point]

**Q.** With Cc1csc(NC(=O)CCS(=O)(=O)c2ccc(Br)cc2)n1 as the molecule, how does the Potency read?
**A.** inconclusive [inhibitor, partial curve, poor fit]

**Q.** With CCOc1cc(C(=O)NCCc2sc(-c3ccc(F)cc3)nc2C)cc(OCC)c1OCC as the molecule, how does the Potency read?
**A.** inconclusive [inhibitor, single point]

**Q.** Which Potency does the source give for CCOC(=O)[C@H]1[C@H]2COc3ccccc3[C@@H]2N2C(=O)c3cc(Cl)ccc3NC(=O)[C@@]12C here?
**A.** inconclusive [inhibitor, single point]

**Q.** Which activity change, negative = growth inhibition does the source give for CCCCC(=O)Nc1ccc2c(c1)nc(CN1CCN(C(=O)OCC)CC1)n2C here?
**A.** inconclusive: -34% [inhibitor]

**Q.** For CCN(C(=O)COC(=O)c1ccc(N2C(=O)c3ccccc3C2=O)cc1)C1CCS(=O)(=O)C1 (stereo unspecified), which “activity change, negative = growth inhibition” value is on record?
**A.** inactive: 4.34%

**Q.** With Cc1ccc(S(=O)(=O)Nc2cccc(-c3cn4cccc(C)c4n3)c2)c(C)c1 as the molecule, how does the Potency read?
**A.** inconclusive [inhibitor, single point]

**Q.** Which “activity change, negative = growth inhibition” value does the source give for O=C(Cn1c(=O)c2cccn2c2cccnc21)NCc1cccc(F)c1 here?
**A.** inactive: -24.6%

**Q.** With CC(C)=CCOc1c2ccoc2cc2oc(=O)ccc12 as the molecule, how does the “activity change, negative = growth inhibition” value read?
**A.** inactive: -0.503%

**Q.** Which Potency does the source give for O=C(Cn1c(SCc2ccccc2F)nc2ccncc21)Nc1ccccc1C(F)(F)F here?
**A.** inconclusive [inhibitor, partial curve]

**Q.** Which Potency does the source give for Fc1ccc2cc(-c3ccccc3)ncc2c1 here?
**A.** inconclusive [inhibitor, partial curve]

**Q.** For CCOc1ccc(NC(=O)c2ccc3[nH]c(C)c(C)c3c2)cc1, which Potency is on record?
**A.** inconclusive [inhibitor, single point]

**Q.** Which “activity change, negative = growth inhibition” value does the source give for CC(C)CC(=O)N1CCC(O)(CS(=O)(=O)c2ccc(Cl)c(Cl)c2)CC1 here?
**A.** inactive: 4.25%

**Q.** For CCC(C)(C)NC(=O)c1sccc1Oc1ccc(F)cc1[N+](=O)[O-], which “activity change, negative = growth inhibition” value is on record?
**A.** inactive: 2.17%

**Q.** Which “activity change, negative = growth inhibition” value does the source give for CC(=O)NC(CC(=O)N1CCCC1)c1ccccc1 (stereo unspecified) here?
**A.** inactive: 1.63%

**Q.** With O=C(Cn1ccc2cc(S(=O)(=O)N3CCCCC3)ccc21)NCCc1ccccc1Cl as the molecule, how does the Potency read?
**A.** inconclusive [inhibitor, single point]

**Q.** For CN(C)C(=O)Oc1cccc([N+](C)(C)C)c1, which Potency is on record?
**A.** inactive

**Q.** For O=C1CCCC2=C1C(c1ccccc1)n1c(s/c(=C/c3cccc(F)c3)c1=O)=N2 (stereo unspecified), which Potency is on record?
**A.** inconclusive [inhibitor, single point]

**Q.** For COc1ccc(NC(=O)CCCC2CCCCC2)cc1S(=O)(=O)N1CCCCC1, which Potency is on record?
**A.** inconclusive [inhibitor, single point]

**Q.** Which Potency does the source give for Cc1ccccc1NC(=O)Cn1cc(C(=O)c2cccs2)c2ccccc21 here?
**A.** inconclusive [inhibitor, single point]

**Q.** Which Potency does the source give for CCc1ccc(NC(=O)CSC2=Nc3ccccc3C3=NC(CCC(=O)NCc4ccccc4)C(=O)N23)cc1 (stereo unspecified) here?
**A.** inconclusive [inhibitor, single point]

**Q.** With COc1cccc(/C=C/C(=O)OCC(=O)c2ccc(S(=O)(=O)N3CCCCC3)cc2)c1OC as the molecule, how does the Potency read?
**A.** inconclusive [inhibitor, single point]

**Q.** Which “activity change, negative = growth inhibition” value does the source give for O=C(CSc1nnc(NC(=O)c2cccc(F)c2)s1)NCc1ccco1 here?
**A.** inactive: -15.4%

**Q.** With Cc1ccsc1CN1CCc2nc(Nc3ccccc3)ncc2C1 as the molecule, how does the Potency read?
**A.** inconclusive [inhibitor, single point]

**Q.** For N#C/C(=C/c1ccc(O)c(O)c1)c1nc2ccccc2[nH]1, which Potency is on record?
**A.** inconclusive [inhibitor, single point]

**Q.** For CCCCc1ccc(NC(=O)Nc2cccnc2)cc1, which Potency is on record?
**A.** inconclusive [inhibitor, partial curve]

**Q.** Which activity change, negative = growth inhibition does the source give for Brc1ccc(-c2nnc(-c3ccccc3Br)o2)cc1 here?
**A.** inconclusive: -31.2% [inhibitor]

**Q.** For CCOc1ccc(NS(=O)(=O)c2ccc(NC(=O)C3CCCO3)cc2)cc1 (stereo unspecified), which Potency is on record?
**A.** inconclusive [inhibitor, single point]

**Q.** Which Potency does the source give for CS(=O)(=O)Nc1cccc(-c2ccc3ncnc(NCCN4CCOCC4)c3c2)c1 here?
**A.** inconclusive [inhibitor, single point]

**Q.** With O=C(COC(=O)c1ccccc1Cc1ccccc1)Nc1ccc(SC(F)F)cc1 as the molecule, how does the Potency read?
**A.** inconclusive [inhibitor, single point]

**Q.** With CC(NC(=O)COC(=O)C1CCN(c2ccc(C(F)(F)F)cn2)CC1)c1ccc(Br)cc1 (stereo unspecified) as the molecule, how does the “activity change, negative = growth inhibition” value read?
**A.** inactive: -32.4%

**Q.** With CCOC(=O)c1c(NC(=O)C2CC2)sc(C)c1CC as the molecule, how does the Potency read?
**A.** inconclusive [inhibitor, single point]

**Q.** For COc1cc2c(cc1OC)C(c1cccs1)N(C(=O)c1ccncc1)CC2 (stereo unspecified), which Potency is on record?
**A.** active: 13 µM

**Q.** For O=C(Nc1ccc(NC(=O)c2cccs2)c(Cl)c1)c1cccs1, which Potency is on record?
**A.** inconclusive [inhibitor, single point]

**Q.** Which Potency does the source give for COc1ccccc1CNC(=O)C[C@H]1CC[C@@H]2[C@H](COC[C@H](O)CN2Cc2ccc3c(c2)OCO3)O1 here?
**A.** inconclusive [inhibitor, partial curve]

**Q.** Which Potency does the source give for NC1=NC[C@H](Cc2ccc(O)cc2)N1CCc1cccc2ccccc12 here?
**A.** active: 18.4 µM

**Q.** For COc1ccc(C(C(=O)NCc2ccccc2)n2c(=O)c(-c3cc4ccccc4[nH]3)nc3ccccc32)cc1 (stereo unspecified), which Potency is on record?
**A.** inconclusive [inhibitor, single point]

**Q.** For CCCCc1c(C)nc(N)[nH]c1=O, which “activity change, negative = growth inhibition” value is on record?
**A.** inactive: -113%

**Q.** Which Potency does the source give for COc1ccc(CNC(=O)CNC(=O)c2sc3ccccc3c2Cl)cc1OC here?
**A.** inconclusive [inhibitor, partial curve]

**Q.** Which Potency does the source give for Cc1cc(C)cc(N2C(=O)CC(Sc3ncn[nH]3)C2=O)c1 (stereo unspecified) here?
**A.** active: 2.59 µM

**Q.** Which Potency does the source give for COC(=O)[C@]12CCCCC=C1N(Cc1ccc3c(c1)OCO3)C(=O)[C@H](CC(=O)N1CCCCC1)C2 here?
**A.** inconclusive [inhibitor, single point]

**Q.** With O=c1c(-c2ccccc2)n[nH]c2ccccc12 as the molecule, how does the “activity change, negative = growth inhibition” value read?
**A.** inactive: -5.87%

**Q.** Which Potency does the source give for CCOc1ccc(NC(=O)CC2SC(=O)N(c3ccccc3)C2=O)cc1 (stereo unspecified) here?
**A.** active: 1.16 µM

**Q.** Which Potency does the source give for Cc1cc(C(=O)C(C)Sc2cccc[n+]2[O-])c(C)n1-c1ccc(Cl)cc1 (stereo unspecified) here?
**A.** active: 2.91 µM

**Q.** Which Potency does the source give for Cc1sc(NC(=O)c2cc(-c3ccccc3)nc3ccccc23)c(C(N)=O)c1C here?
**A.** active: 14.6 µM

**Q.** With C=CCC1(C#N)C(SC)=NC2=C(C(=O)CC(C)(C)C2)C1c1ccc(Br)cc1 (stereo unspecified) as the molecule, how does the Potency read?
**A.** inconclusive [inhibitor, single point]

**Q.** For O=C(Nc1ccc(N2CCN(C(=O)c3ccccc3)CC2)c(Cl)c1)c1ccc(Br)o1, which Potency is on record?
**A.** active: 23.1 µM

**Q.** Which “activity change, negative = growth inhibition” value does the source give for CC1CC(C)CN(S(=O)(=O)c2cccc(C(=O)N3C(=O)c4cccc(N)c4C3=O)c2)C1 (stereo unspecified) here?
**A.** inactive: 5.09%

**Q.** With CC(C)c1nc(SCC(=O)N2CCc3ccccc32)n[nH]1 as the molecule, how does the “activity change, negative = growth inhibition” value read?
**A.** inactive: -0.536%

**Q.** For O=C1CCC[C@@H]2Cc3[nH]c4c(Cl)ccc(Cl)c4c3[C@@H]3CCN1[C@H]23, which Potency is on record?
**A.** inconclusive [inhibitor, single point]

**Q.** Which Potency does the source give for CCOC(=O)C1=CC[C@@H](c2ccccc2)N(S(=O)(=O)c2ccc(C)cc2)[C@H]1c1ccc(CC)cc1 here?
**A.** inconclusive [inhibitor, single point]

**Q.** Which Potency does the source give for CC(=O)Nc1ccc(-c2csc(NC(=O)Nc3ccccc3)n2)cc1 here?
**A.** active: 3.66 µM

**Q.** Which Potency does the source give for CSc1ccccc1NC(=O)C1(C)CCN1C(=O)CCC1CCCC1 (stereo unspecified) here?
**A.** inconclusive [inhibitor, single point]

**Q.** For CSc1ccccc1C(=O)Nc1nc2ccccc2c(=O)[nH]1, which “activity change, negative = growth inhibition” value is on record?
**A.** inactive: -30.4%

**Q.** Which Potency does the source give for CCn1c(=O)c([N+](=O)[O-])c(NCC(O)c2ccccc2)c2ccccc21 (stereo unspecified) here?
**A.** inconclusive [inhibitor, single point]
